# In the supplement of paper PMC8728848:
# This is one part of the list.
# B1: CVN-E41G (protein)
# chain: MHHHHHHENLYFQSGNFSQACYNSAIQGSVLTSTCIRTNGGYNTSSIDLNSVIANVDGSLKWQGSNFIETCRNTQLAGSSELAAECKTRAQQFVSTKINLDDHIAAIDGTLKYE
# Key:
# Test in all cases: glycan array binding signal (z-score within array); higher = stronger binding
# Conditions in all cases: glycan notation: IUPAC condensed, linker removed; mutation: E41A
# Fuc(a1-2)Gal = target: Fuc(a1-2)Gal
# Summary of the method: (§1)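 Negative Z-scores can be read as non-binding. The Z-score is calculated within each array and then averaged across arrays of one protein sequence at different concentrations or buffers and across linkers. Arrays, 3228 in all, were curated from the Consortium for Functional Glycomics database and kept only where the protein sequence was available.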
# Fuc(a1-2)Gal(b1-3)GalNAc = target: Fuc(a1-2)Gal(b1-3)GalNAc
# Summary of the method: as §1
# [1] = target: Fuc(a1-2)Gal(b1-3)GalNAc(a1-3)[Fuc(a1-2)]Gal(b1-4)Glc
# Summary of the method: as §1
# [2] = target: Fuc(a1-2)Gal(b1-3)GalNAc(a1-3)[Fuc(a1-2)]Gal(b1-4)GlcNAc
# Summary of the method: as §1
# [3] = target: Fuc(a1-2)Gal(b1-3)GalNAc(b1-3)Gal
# Summary of the method: as §1
# [4] = target: Fuc(a1-2)Gal(b1-3)GalNAc(b1-3)Gal(a1-4)Gal(b1-4)Glc
# Summary of the method: as §1
# [5] = target: Fuc(a1-2)Gal(b1-3)GalNAc(b1-4)[Neu5Ac(a2-3)]Gal(b1-4)Glc
# Summary of the method: as §1
# Fuc(a1-2)Gal(b1-3)GlcNAc = target: Fuc(a1-2)Gal(b1-3)GlcNAc
# Summary of the method: as §1
# [6] = target: Fuc(a1-2)Gal(b1-3)GlcNAc(b1-2)Man(a1-3)[Fuc(a1-2)Gal(b1-3)GlcNAc(b1-2)Man(a1-6)]Man(b1-4)GlcNAc(b1-4)GlcNAc
# Summary of the method: as §1
# [7] = target: Fuc(a1-2)Gal(b1-3)GlcNAc(b1-2)Man(a1-3)[Fuc(a1-2)Gal(b1-3)GlcNAc(b1-2)Man(a1-6)]Man(b1-4)GlcNAc(b1-4)[Fuc(a1-6)]GlcNAc
# Summary of the method: as §1
# [8] = target: Fuc(a1-2)Gal(b1-3)GlcNAc(b1-3)Gal(b1-4)Glc
# Summary of the method: as §1
# [9] = target: Fuc(a1-2)Gal(b1-3)GlcNAc(b1-3)GalNAc
# Summary of the method: as §1
# [10] = target: Fuc(a1-2)Gal(b1-3)GlcNAc(b1-3)[Fuc(a1-2)Gal(b1-3)GlcNAc(b1-6)]GalNAc
# Summary of the method: as §1
# [11] = target: Fuc(a1-2)Gal(b1-3)GlcNAc(b1-3)[Gal(b1-4)GlcNAc(b1-6)]Gal(b1-4)Glc
# Summary of the method: as §1
# [12] = target: Fuc(a1-2)Gal(b1-3)GlcNAc(b1-3)[Neu5Ac(a2-6)Gal(b1-4)GlcNAc(b1-6)]Gal(b1-4)Glc
# Summary of the method: as §1
# [13] = target: Fuc(a1-2)Gal(b1-3)GlcNAc6S
# Summary of the method: as §1
# [14] = target: Fuc(a1-2)Gal(b1-3)[Fuc(a1-4)]GlcNAc
# Summary of the method: as §1
# [15] = target: Fuc(a1-2)Gal(b1-3)[Fuc(a1-4)]GlcNAc(b1-2)Man(a1-3)[Fuc(a1-2)Gal(b1-3)[Fuc(a1-4)]GlcNAc(b1-2)Man(a1-3)]Man(b1-4)GlcNAc(b1-4)GlcNAc
# Summary of the method: as §1
# [16] = target: Fuc(a1-2)Gal(b1-3)[Fuc(a1-4)]GlcNAc(b1-2)Man(a1-3)[Fuc(a1-2)Gal(b1-3)[Fuc(a1-4)]GlcNAc(b1-2)Man(a1-6)]Man(b1-4)GlcNAc(b1-4)[Fuc(a1-6)]GlcNAc(b1-4)[Fuc(a1-6)]GlcNAc
# Summary of the method: as §1
# [17] = target: Fuc(a1-2)Gal(b1-3)[Fuc(a1-4)]GlcNAc(b1-3)[Fuc(a1-3)[Gal(b1-4)]GlcNAc(b1-6)]Gal(b1-4)Glc
# Summary of the method: as §1
# [18] = target: Fuc(a1-2)Gal(b1-3)[Fuc(a1-4)]GlcNAc(b1-3)[Gal(b1-4)GlcNAc(b1-6)]Gal(b1-4)Glc
# Summary of the method: as §1
# [19] = target: Fuc(a1-2)Gal(b1-4)Fuc(a1-3)]GlcNAc(b1-2)Man(a1-3)[Fuc(a1-2)Gal(b1-4)[Fuc(a1-3)]GlcNAc(b1-2)Man(a1-6)]Man(b1-4)GlcNAc(b1-4)GlcNAc
# Summary of the method: as §1
# Fuc(a1-2)Gal(b1-4)Glc = target: Fuc(a1-2)Gal(b1-4)Glc
# Summary of the method: as §1
# Fuc(a1-2)Gal(b1-4)Glc6S = target: Fuc(a1-2)Gal(b1-4)Glc6S
# Summary of the method: as §1
# Fuc(a1-2)Gal(b1-4)GlcNAc = target: Fuc(a1-2)Gal(b1-4)GlcNAc
# Summary of the method: as §1
# [20] = target: Fuc(a1-2)Gal(b1-4)GlcNAc(b1-2)Man
# Summary of the method: as §1
# [21] = target: Fuc(a1-2)Gal(b1-4)GlcNAc(b1-2)Man(a1-3)[Fuc(a1-2)Gal(b1-4)GlcNAc(b1-2)Man(a1-6)]Man(b1-4)GlcNAc(b1-4)GlcNAc
# Summary of the method: as §1
# [22] = target: Fuc(a1-2)Gal(b1-4)GlcNAc(b1-2)Man(a1-3)[Fuc(a1-2)Gal(b1-4)GlcNAc(b1-2)Man(a1-6)]Man(b1-4)GlcNAc(b1-4)[Fuc(a1-6)]GlcNAc
# Summary of the method: as §1
# [23] = target: Fuc(a1-2)Gal(b1-4)GlcNAc(b1-2)[Fuc(a1-2)Gal(b1-4)GlcNAc(b1-4)]Man(a1-3)[Fuc(a1-2)Gal(b1-4)GlcNAc(b1-2)Man(a1-6)]Man(b1-4)GlcNAc(b1-4)GlcNAc
# Summary of the method: as §1
# [24] = target: Fuc(a1-2)Gal(b1-4)GlcNAc(b1-3)Gal(b1-4)GlcNAc
# Summary of the method: as §1
# [25] = target: Fuc(a1-2)Gal(b1-4)GlcNAc(b1-3)Gal(b1-4)GlcNAc(b1-2)Man(a1-3)[Fuc(a1-2)Gal(b1-4)GlcNAc(b1-3)Gal(b1-4)GlcNAc(b1-2)Man(a1-6)]Man(b1-4)GlcNAc(b1-4)GlcNAc
# Summary of the method: as §1
# [26] = target: Fuc(a1-2)Gal(b1-4)GlcNAc(b1-3)Gal(b1-4)GlcNAc(b1-3)Gal(b1-4)GlcNAc
# Summary of the method: as §1
# [27] = target: Fuc(a1-2)Gal(b1-4)GlcNAc(b1-3)GalNAc
# Summary of the method: as §1
# [28] = target: Fuc(a1-2)Gal(b1-4)GlcNAc(b1-3)[Fuc(a1-2)Gal(b1-4)GlcNAc(b1-6)]GalNAc
# Summary of the method: as §1
# [29] = target: Fuc(a1-2)Gal(b1-4)GlcNAc(b1-3)[Fuc(a1-3)[Gal(b1-4)]GlcNAc(b1-6)]Gal(b1-4)Glc
# Summary of the method: as §1
# [30] = target: Fuc(a1-2)Gal(b1-4)GlcNAc(b1-6)GalNAc
# Summary of the method: as §1
# [31] = target: Fuc(a1-2)Gal(b1-4)GlcNAc6S
# Summary of the method: as §1
# [32] = target: Fuc(a1-2)Gal(b1-4)[Fuc(a1-3)]GlcNAc
# Summary of the method: as §1
# [33] = target: Fuc(a1-2)Gal(b1-4)[Fuc(a1-3)]GlcNAc(b1-2)Man(a1-3)[Fuc(a1-2)Gal(b1-4)[Fuc(a1-3)]GlcNAc(b1-2)Man(a1-6)]Man(b1-4)GlcNAc(b1-4)[Fuc(a1-6)]GlcNAc
# Summary of the method: as §1
# [34] = target: Fuc(a1-2)Gal(b1-4)[Fuc(a1-3)]GlcNAc(b1-2)[Fuc(a1-2)Gal(b1-4)[Fuc(a1-3)]GlcNAc(b1-4)]Man(a1-3)[Fuc(a1-2)Gal(b1-4)[Fuc(a1-3)]GlcNAc(b1-2)Man(a1-6)]Man(b1-4)GlcNAc(b1-4)GlcNAc
# Summary of the method: as §1
# [35] = target: Fuc(a1-2)Gal(b1-4)[Fuc(a1-3)]GlcNAc(b1-3)Gal(b1-4)[Fuc(a1-3)]GlcNAc
# Summary of the method: as §1
# [36] = target: Fuc(a1-2)Gal(b1-4)[Fuc(a1-3)]GlcNAc(b1-3)Gal(b1-4)[Fuc(a1-3)]GlcNAc(b1-3)Gal(b1-4)[Fuc(a1-3)]GlcNAc
# Summary of the method: as §1
# [37] = target: Fuc(a1-2)Gal(b1-4)[Fuc(a1-3)]GlcNAc(b1-3)GalNAc
# Summary of the method: as §1
# [38] = target: Fuc(a1-2)Gal(b1-4)[Fuc(a1-3)]GlcNAc(b1-3)[Neu5Ac(a2-6)Gal(b1-4)GlcNAc(b1-6)]Gal(b1-4)Glc
# Summary of the method: as §1
# [39] = target: Fuc(a1-2)Gal3S(b1-4)GlcNAc
# Summary of the method: as §1
binder,measurement,setting,value
B1,glycan array binding signal (z-score),Fuc(a1-2)Gal,-0.151
same,glycan array binding signal (z-score),Fuc(a1-2)Gal(b1-3)GalNAc,-0.207
same,glycan array binding signal (z-score),[1],-0.198
same,glycan array binding signal (z-score),[2],-0.16
same,glycan array binding signal (z-score),[3],0.084
same,glycan array binding signal (z-score),[4],-0.141
same,glycan array binding signal (z-score),[5],-0.172
same,glycan array binding signal (z-score),Fuc(a1-2)Gal(b1-3)GlcNAc,-0.224
same,glycan array binding signal (z-score),[6],0.445
same,glycan array binding signal (z-score),[7],0.677
same,glycan array binding signal (z-score),[8],-0.154
same,glycan array binding signal (z-score),[9],0.097
same,glycan array binding signal (z-score),[10],0.091
same,glycan array binding signal (z-score),[11],-0.169
same,glycan array binding signal (z-score),[12],-0.168
same,glycan array binding signal (z-score),[13],-0.051
same,glycan array binding signal (z-score),[14],-0.228
same,glycan array binding signal (z-score),[15],0.053
same,glycan array binding signal (z-score),[16],0.571
same,glycan array binding signal (z-score),[17],-0.223
same,glycan array binding signal (z-score),[18],-0.08
same,glycan array binding signal (z-score),[19],0.18
same,glycan array binding signal (z-score),Fuc(a1-2)Gal(b1-4)Glc,-0.206
same,glycan array binding signal (z-score),Fuc(a1-2)Gal(b1-4)Glc6S,-0.072
same,glycan array binding signal (z-score),Fuc(a1-2)Gal(b1-4)GlcNAc,-0.234
same,glycan array binding signal (z-score),[20],-0.09
same,glycan array binding signal (z-score),[21],0.4
same,glycan array binding signal (z-score),[22],0.904
same,glycan array binding signal (z-score),[23],0.764
same,glycan array binding signal (z-score),[24],-0.201
same,glycan array binding signal (z-score),[25],-0.132
same,glycan array binding signal (z-score),[26],0.013
same,glycan array binding signal (z-score),[27],-0.19
same,glycan array binding signal (z-score),[28],-0.149
same,glycan array binding signal (z-score),[29],-0.187
same,glycan array binding signal (z-score),[30],-0.135
same,glycan array binding signal (z-score),[31],0.063
same,glycan array binding signal (z-score),[32],-0.215
same,glycan array binding signal (z-score),[33],0
same,glycan array binding signal (z-score),[34],0.441
same,glycan array binding signal (z-score),[35],-0.148
same,glycan array binding signal (z-score),[36],0.107
same,glycan array binding signal (z-score),[37],-0.136
same,glycan array binding signal (z-score),[38],-0.163
same,glycan array binding signal (z-score),[39],-0.225
